# Several values for one entry are separate records, joined by “and”; a condition that tells them apart may be missing. Equal entries are not always repeated. Among all 94,000 compounds or so, about 6,200 (6.6%) were called active. This list was built around the results that the source calls inconclusive (neither active nor inactive); the mix of calls is not that of the screen. The call rests on the fitted dose curve; in most records, active means well fitted inhibition curve with a large enough effect; inconclusive means small, poorly fitted or top-dose-only effect; inactive means flat fitted curve, though single readings scatter. A potency beside an inconclusive call is a rough fit, not a confirmed value.
# Assay: Cytotoxic Profiling in HEK 293 Cell Line of Diverse Libraries Using Quantitative High-Throughput Screening; further: nearly all actives have a fitted effect of over 60% in size
# Settings: HEK 293 viability, ATP luminescence (CellTiter-Glo), 48-72 h; series mostly up to 115 µM
# How it was run: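 Read-out: CellTiter-Glo ATP luminescence. Cells: HEK 293, 250 cells/well. Exposure: 48 or 72 hr, 37 degree Celsius.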
# Potency means the concentration at half of the fitted maximal effect; tags describe the fitted curve by direction and shape.
row,SMILES,Potency
1,CN(Cc1ccccc1)Cc1cn([C@H]2CO[C@H]3[C@@H]2OC[C@@H]3NS(=O)(=O)c2cccs2)nn1,"inconclusive: 89.1 µM [inhibitor, single point]"
2,O=C(NC1CCN(c2cc(-c3cccs3)[nH]n2)C1)c1ccc(F)cc1Cl (stereo unspecified),"inconclusive: 39.8 µM [inhibitor, partial curve, poor fit]"
3,COc1cccc(-c2ccc(C(=O)N3CCC(C(=O)NCc4ccc5c(c4)OCO5)CC3)cc2)c1,"inconclusive: 50.1 µM [inhibitor, partial curve, poor fit]"
4,CC1=C[C@@H](CNC(=O)c2ccncc2)[C@H](C(C)C)C[C@H]1CC(=O)NCc1ccc(C#N)cc1,"inconclusive: 50.1 µM [inhibitor, partial curve, poor fit]"
5,COc1ccc(C(=O)N2c3ccccc3CC2c2nc(C(C)C)no2)c(OC)c1 (stereo unspecified),"inconclusive: 50.1 µM [inhibitor, partial curve, poor fit]"
6,O=C(c1ccccn1)N1CC(=O)N(C2CCCCC2)CC(OCc2ccccc2)C1 (stereo unspecified),"inconclusive: 79.4 µM [inhibitor, single point]"
7,COc1cccc(CN2C[C@@H]3C(C(=O)Nc4cncc(OC)c4)=NO[C@@H]3C2)c1,"inconclusive: 112 µM [inhibitor, single point]"
8,COc1ccc(CNC(=O)c2noc(-c3ccc4c(c3)OCO4)n2)cc1,"inconclusive: 50.1 µM [inhibitor, partial curve]"
9,CCCc1nnc(C[C@@H]2C[C@@H](C(C)C)[C@H](CNCc3cccnc3)C=C2C)o1,"inconclusive: 79.4 µM [inhibitor, partial curve]"
10,O=C(c1ccc(Cl)cc1)N1CCC(n2cc(-c3ccc(OC(F)(F)F)cc3)[nH]c2=O)CC1,"inconclusive: 35.5 µM [inhibitor, partial curve, poor fit]"
11,Cc1ccc(C(=O)NCc2nnc3c(-c4nc(C(C)C)no4)cccn23)cc1C,inactive
12,COc1cccc(-c2ccc(CN3CCCC(NC(=O)Nc4ccc(Cl)cc4)C3)cc2)c1 (stereo unspecified),"inconclusive: 35.5 µM [inhibitor, partial curve, poor fit]"
13,COc1cc2c(cc1C(=O)N1CCC3(CCCN(C)C3=O)C1)CCC2 (stereo unspecified),inactive
14,CC(C)CC(=O)N1CCOCC12CCN(Cc1cccc(C#N)c1)CC2,"inconclusive: 126 µM [inhibitor, single point]"
15,COc1cccc(-c2ccc(C(=O)N3CCC(C(=O)NCC4CC4)CC3)cc2)c1,"inconclusive: 50.1 µM [inhibitor, partial curve, poor fit]"
16,CN(C)c1cccc(C(=O)N2CCC3(CC2)N=C(c2ccccc2)NO3)c1,inactive
17,O=C1NCCCCCN(C(=O)c2ccoc2)[C@@H]2C[C@@H](C(=O)N3CCc4ccccc4C3)C[C@H]12,"inconclusive: 31.6 µM [inhibitor, partial curve]"
18,O=C(NCCCc1ccccc1)c1ccc2nnc(-c3cc(F)ccc3F)n2c1,"inconclusive: 15.8 µM [inhibitor, partial curve, poor fit]"
19,O=C(Nc1cccc(Cl)c1)C1CCCN(c2nc3ncccc3o2)C1 (stereo unspecified),"inconclusive: 50.1 µM [inhibitor, partial curve, poor fit]"
20,O=C(NCc1cccs1)C1CCCN1Cc1ccc(-c2cncnc2)cc1 (stereo unspecified),"inconclusive: 79.4 µM [inhibitor, partial curve]"
21,CC(C)NC(=O)N(C)CC1CCOCC1,inactive

row,SMILES,Potency
1,COc1ccc(-c2nc3c(c(-c4ccccc4)n2)CN(C(=O)c2ccccc2Cl)CC3)cc1,"inconclusive: 25.1 µM [inhibitor, full curve]"
2,CC(C)c1cnc(N2CCC(COc3ccc4c(cnn4CCC(=O)O)c3)CC2)nc1,"inconclusive: 112 µM [inhibitor, partial curve, poor fit]"
3,Cc1cc(C(=O)N2C[C@@H](Oc3ccccc3)C[C@H]2C(=O)N2CCCC2)n(C)n1,inactive
4,O=C(Cc1cccc(Cl)c1)N1CCCC(C(=O)N2CCCC(c3nc4ccncc4[nH]3)C2)C1 (stereo unspecified),"inconclusive: 28.2 µM [inhibitor, partial curve]"
5,COCCn1cc2c3c(cccc31)CN(C(=O)c1c(F)cccc1Cl)CC2,"inconclusive: 50.1 µM [inhibitor, partial curve, poor fit]"
6,COc1cccc(-c2nc(N3CCOCC3)cc3c2CN(CC2CC2)C3=O)c1,"inconclusive: 100 µM [inhibitor, partial curve, poor fit]"
7,CCC1Oc2ccc(NC(=O)c3cccs3)cc2CN(Cc2ccc(OC)cc2)C1=O (stereo unspecified),"inconclusive: 50.1 µM [inhibitor, partial curve, poor fit]"
8,COc1ccc(OCC(=O)N2CCC(Cc3nc(-c4ccc(OC)cc4)no3)CC2)cc1,active: 12.6 µM
9,CC(C)c1nc2c(c(-c3ccc(O)cc3)n1)CCN(Cc1cccc3ccccc13)CC2,active: 25.1 µM
10,O=C(Nc1ccc(Cl)cc1)NC1CCN(Cc2cccc(-c3cccs3)c2)CC1,active: 5.62 µM and active: 20 µM
11,O=C(Nc1cc(F)cc(F)c1)N1CC(c2noc(-c3ccncc3)n2)C1,"inconclusive: 56.2 µM [inhibitor, partial curve, poor fit]"
12,CCOc1ccc(C(=O)Nc2cccc(-c3nnc4n3CCCC4)c2)cc1,"inconclusive: 50.1 µM [inhibitor, partial curve, poor fit]"
13,Cc1ccc(C(=O)N2CCC3(CC2)N=C(c2ccccc2)NO3)cc1,"inconclusive: 89.1 µM [inhibitor, single point]"
14,COC(=O)C1=C(C)N=C2SC=C(CC(=O)NCCC(C)C)N2C1c1ccsc1 (stereo unspecified),"inconclusive: 79.4 µM [inhibitor, single point]"
15,CCCc1noc(-c2ccn3c(CNC(=O)c4ccc5ccccc5n4)nnc3c2)n1,inactive
16,COc1ccc(-c2cc(CC3(NC4CCCCC4)COC3)no2)cc1,"inconclusive: 126 µM [inhibitor, single point]"
17,Cc1ccc(C2Cn3nnc(-c4noc(CNC(=O)c5ccccc5)n4)c3CO2)cc1 (stereo unspecified),inactive
18,CC(C)CNC(=O)N1CCCC(c2noc(COc3ccccc3F)n2)C1 (stereo unspecified),"inconclusive: 50.1 µM [inhibitor, partial curve, poor fit]"
19,CCCCCCN1CCCC12Cc1ccccc1CNC2=O (stereo unspecified),"inconclusive: 100 µM [inhibitor, partial curve]"
20,Cc1ccccc1CN1CC[C@H](c2nc3ccccc3s2)C1,active: 70.8 µM
21,O=c1c2c(n(Cc3ccccc3)n1-c1ccccc1)CN(Cc1ccc3[nH]ccc3c1)CC2,"inconclusive: 112 µM [inhibitor, partial curve, poor fit]"

row,SMILES,Potency
1,COc1cccc(NC(=O)NC[C@H]2O[C@@H](CO)[C@@H](O)[C@H]2N2CCN(c3ccccc3OC)CC2)c1,inactive
2,O=C(c1ccc(C(F)(F)F)cc1)N1CCC2(CC1)COc1ccccc1CN2,inactive
3,O=C(Cc1ccc(F)cc1)N1CN=C(C2CCN(Cc3ccc(F)cc3)CC2)N1,"inconclusive: 56.2 µM [inhibitor, partial curve, poor fit]"
4,CN(C)CCOCC1(C)COc2ccc(C(=O)NCc3ccc(F)cc3)cc2N1 (stereo unspecified),"inconclusive: 126 µM [inhibitor, single point]"
5,NC(=O)[C@H](CC1CCCCC1)NC(=O)[C@H]1CN(C(=O)C2CCNCC2)CCN1C(=O)NC1CCCCC1,inactive
6,CCCN(C)C(=O)Cc1ccc(N(Cc2ccc(C)cc2)C(=O)c2ccco2)cc1,"inconclusive: 56.2 µM [inhibitor, partial curve, poor fit]"
7,CC(C)CCN1CC[C@@H]2OCC(=O)N(Cc3ccccc3)[C@H]2CC1,"inconclusive: 126 µM [inhibitor, single point]"
8,Cn1cnnc1C1CCN(C(=O)C2CCCN(C(N)=O)C2)CC1 (stereo unspecified),inactive
9,CCOc1ccc(NC(=O)Cn2c(-c3ccc(Cl)cc3)nc(C)c(CCO)c2=O)cc1,inactive
10,Cc1nc2cc(OCc3nc(C(=O)N(C)CC4(CO)CCC4)co3)ccc2s1,"inconclusive: 50.1 µM [inhibitor, partial curve, poor fit]"
11,Cc1ccc([S+](=O)([O-])N2CCC(C(=O)N3CCCC(c4nc5ncccc5[nH]4)C3)CC2)cc1 (stereo unspecified),active: 28.2 µM
12,Cc1nc2cccnc2n1CC1CCCN(S(=O)(=O)c2ccc(F)c(Cl)c2)C1 (stereo unspecified),"inconclusive: 50.1 µM [inhibitor, partial curve, poor fit]"
13,COc1ccccc1-c1cccc(C(=O)N2CCC[C@H]2C(=O)N2CCC(c3ccccc3)CC2)c1,"inconclusive: 10 µM [inhibitor, full curve, poor fit]"
14,COc1ccc(CCC(=O)N[C@@H]2CN(c3ncccn3)C[C@H]2CO)cc1,inactive
15,O=C1N(CCc2ccccc2)CCOC12CCN(Cc1ccc(F)cc1)CC2,"inconclusive: 100 µM [inhibitor, partial curve, poor fit]"
16,COC[C@@H]1CCCN1Cc1cn(-c2ccccc2C)nc1-c1ccc(OC)c(F)c1,"inconclusive: 89.1 µM [inhibitor, partial curve, poor fit]"
17,O=C(Nc1ccccc1)Nc1ccc([C@H]2OCC(=O)N(Cc3ccccc3)[C@@H]2CO)cc1,active: 70.8 µM
18,Cc1ccc(-c2cn3c(n2)CO[C@@H](CNC(C)C)C3)cc1,"inconclusive: 141 µM [inhibitor, partial curve, poor fit]"
19,N#Cc1ccc(CN2CCC3(CC2)OCCN(CCc2ccccc2)C3=O)cc1,"inconclusive: 112 µM [inhibitor, partial curve, poor fit]"

# From PubChem BioAssay AID1345083 (National Center for Advancing Translational Sciences (NCATS), 2018)
